# Measurements: PubChem BioAssay AID624170 (National Center for Advancing Translational Sciences (NCATS), 2012)
# Among all 410,000 compounds or so, about 850 (0.21%) were called active. The shares of active, inactive and inconclusive entries below differ from those in the screen. Calls follow the shape of the dose curve; as a rule, active = well fitted inhibition curve with a large enough effect; inconclusive = small, poorly fitted or top-dose-only effect, or another doubt; inactive = no such curve, though single readings can be large or run the other way. No potency is given beside an inconclusive call; the fits are too rough.
# Target: Glutaminase kidney isoform, mitochondrial (Homo sapiens) (UniProt O94925)
# UniProt O94925, sequence (O94925 whole entry, looked up, canonical isoform): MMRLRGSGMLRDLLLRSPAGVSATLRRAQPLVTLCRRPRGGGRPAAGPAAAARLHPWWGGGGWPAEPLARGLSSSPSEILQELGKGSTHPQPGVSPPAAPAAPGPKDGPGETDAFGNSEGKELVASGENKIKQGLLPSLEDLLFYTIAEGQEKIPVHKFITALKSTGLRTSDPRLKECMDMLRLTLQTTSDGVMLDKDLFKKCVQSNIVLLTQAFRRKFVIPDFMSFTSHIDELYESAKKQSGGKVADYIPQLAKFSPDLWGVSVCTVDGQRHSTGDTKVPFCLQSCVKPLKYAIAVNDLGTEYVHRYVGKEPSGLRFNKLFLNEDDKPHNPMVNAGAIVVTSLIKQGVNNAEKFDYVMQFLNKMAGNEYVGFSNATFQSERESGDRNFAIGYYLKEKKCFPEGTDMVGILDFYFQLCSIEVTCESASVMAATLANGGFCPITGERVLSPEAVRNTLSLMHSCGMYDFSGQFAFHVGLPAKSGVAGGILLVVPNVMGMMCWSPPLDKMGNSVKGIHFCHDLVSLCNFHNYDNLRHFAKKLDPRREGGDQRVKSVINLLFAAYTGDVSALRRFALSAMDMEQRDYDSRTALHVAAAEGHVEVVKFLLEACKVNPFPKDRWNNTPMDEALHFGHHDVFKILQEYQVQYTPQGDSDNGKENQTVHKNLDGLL
# Experiment: qHTS for Inhibitors of Glutaminase (GLS)
# Details: GLS enzymatic activity, qHTS titration; series mostly up to 45.5 µM
# How it was run: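 hKGA in 45 mM KH2PO4 pH 8.2, 0.02% Tween-20 with pin-transferred compounds; 1 mM L-glutamine (stock) plus glutamate oxidase/HRP/Amplex Red coupling added. Fluorescence read initially and after 30 min at RT.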
# Potency is read from the fitted curve at half-maximal effect; tags tell the direction and shape of the fitted curve.
row,Structure (SMILES),Potency
1,CCOC(=O)C1=C(N)OC(CCl)=C(C#N)C1c1ccsc1 (centres undefined),"inconclusive [inhibitor, single point]"
2,O=C(Cc1cccc2ccccc12)N/N=C/c1ccc(F)cc1,"inconclusive [inhibitor, single point]"
3,COc1ccc(N2C(=O)CC(Nc3ccc(F)cc3)C2=O)c([N+](=O)[O-])c1 (centres undefined),"inconclusive [inhibitor, single point]"
4,CC(=O)N(C(C)=O)c1nc(-c2ccccc2)cn1/N=C/c1cccc([N+](=O)[O-])c1,"inconclusive [inhibitor, partial curve, poor fit]"
5,CCN(CC)S(=O)(=O)c1ccc(N(C)Cc2cccc(OC)c2OC)nc1,"inconclusive [inhibitor, single point]"
6,Nn1c(SCC(=O)Nc2ccc3c(c2)OCCO3)nnc(CCC(=O)O)c1=O,"inconclusive [inhibitor, single point]"
7,C=CCNc1nc(-c2ccc(O)c(C(N)=O)c2)cs1,"inconclusive [inhibitor, single point]"
8,CN(C)Cc1cc(C(C)(C)C)cc(N2CCOCC2)c1O,"inconclusive [inhibitor, single point]"
9,CC(=O)/C(=N/Nc1ccc(Br)cc1)N1CCCc2ccccc21,"inconclusive [inhibitor, single point]"
10,COc1ccc(CCn2c(N)c(C(=O)NCc3ccco3)c3nc4ccccc4nc32)cc1,inactive
11,Oc1cccc(Nc2c3ccccc3nc3ccccc23)c1,inactive
12,Cn1c(C(=O)NC2CCCCC2)cc2sccc21,inactive
13,O=C(N/N=C(\Cc1ncc[nH]1)c1ccccc1)c1ccncc1,"inconclusive [inhibitor, partial curve, poor fit]"
14,O=C(Nc1ccccc1)c1sc2cc(C(F)(F)F)cnc2c1-c1cccs1,"inconclusive [inhibitor, single point]"
15,[N-]=C=C1C(=O)NC(=O)C([n+]2ccc(-c3ccncc3)cc2)C1c1ccccc1C(F)(F)F (centres undefined),inactive
16,CC(=O)C1=C(c2ccc(Cl)c(Cl)c2)N(C(C)=O)n2c(C)nnc2S1,"inconclusive [inhibitor, partial curve]"
17,CNc1c(NC(=O)COc2ccc(Cl)cc2)c(=O)oc2ccccc12,"inconclusive [inhibitor, single point]"
18,CCOC(=O)C1=C(C)N=C2SCCC(=O)N2[C@@H]1c1cccs1,"inconclusive [inhibitor, partial curve]"
19,CC(=O)N1CCC(=NNc2ncc(C(F)(F)F)cc2Cl)CC1,"inconclusive [inhibitor, partial curve, poor fit]"
20,CCCc1nc2sc3c(SCC(=O)NCc4ccco4)ncnc3c2c2c1CCC2,"inconclusive [inhibitor, partial curve, poor fit]"
21,O=C(CNC(=O)c1ccncc1)N/N=C/c1ccccn1,inactive
22,Cc1ccc(S(=O)(=O)Nc2ccc3cc([N+](=O)[O-])ccc3c2[N+](=O)[O-])cc1,"inconclusive [inhibitor, single point]"

row,Structure (SMILES),Potency
1,CCOC(CN=c1nc(N(C)C)ss1)OCC,"inconclusive [inhibitor, partial curve]"
2,CCN(CC)c1ccc(N2C(=O)CSC2=S)cc1,"inconclusive [inhibitor, single point]"
3,Cc1cnc(NC(=O)c2sc3ccccc3c2Cl)s1,inactive
4,Nc1cc(S(=O)(=O)O)cc([N+](=O)[O-])c1O,"inconclusive [inhibitor, single point]"
5,COc1ccccc1NC(CC(=O)c1ccccc1)C(=O)OCC(=O)c1ccc(C)cc1 (centres undefined),inactive
6,CCCCc1cc(=O)oc2cc(C)cc(OC(C)C(=O)NC(Cc3c[nH]c4ccc(O)cc34)C(=O)O)c12 (centres undefined),"inconclusive [inhibitor, single point]"
7,N#Cc1c[nH]n2c(NC3CCCCC3)c(-c3cccc(Cl)c3)nc12,"inconclusive [inhibitor, partial curve]"
8,COc1cc(N(C)C)ccc1C=c1c2ccccc2n2c1cc(-c1ccccc1)[n+]2C,"inconclusive [inhibitor, single point]"
9,O=C(CSc1nnc(CNc2ccc(F)cc2)o1)N1CCN(C(=O)c2ccco2)CC1,inactive
10,O=C(COC(=O)c1cnccn1)c1ccc([N+](=O)[O-])cc1,inactive
11,COc1cc(/C=N/NC(=S)Nc2cccc(S(=O)(=O)N(C)C)c2)ccc1O,active: 10 µM
12,COc1cc2c(cc1OC)-c1cc(Nc3ccc(N(C)C)cc3)nc(=O)n1CC2,"inconclusive [inhibitor, partial curve, poor fit]"
13,CS(=O)(=O)c1ccc2c(c1)SC1=NC(=O)/C(=C/c3ccco3)C(=N)N12,"inconclusive [inhibitor, single point]"
14,CCOC(=O)c1sc(=NC(=O)c2cc(OC)c(OC)c(OC)c2)n(C)c1C,"inconclusive [inhibitor, single point]"
15,COc1ccc(C2C=C(c3ccccc3)Nc3nc(NC(=O)/C=C/c4ccc(F)cc4)nn32)cc1 (centres undefined),"inconclusive [inhibitor, single point]"
16,CO[C@H]1/C=C/O[C@@]2(C)Oc3c(C)c(O)c4c(O)c(c5c(c4c3C2=O)NC2(CCN(CC(C)C)CC2)N=5)=NC(=O)/C(C)=C\C=C\[C@H](C)[C@H](O)[C@@H](C)[C@@H](O)[C@@H](C)[C@H](OC(C)=O)[C@@H]1C,"inconclusive [inhibitor, partial curve, poor fit]"
17,CCNC(=S)/N=C(/Nc1ccccc1)Nc1nc(C)cc(C)n1,"inconclusive [inhibitor, single point]"
18,COc1ccc(OCC(=O)Nc2cc(-c3nn(C)c(=O)c4ccccc34)ccc2OC)cc1,"inconclusive [inhibitor, single point]"
19,CC(C)N1CCc2nc(SCC(=O)Nc3cccc(F)c3)[nH]c(=O)c2C1,"inconclusive [inhibitor, single point]"
20,COc1ccc2c(c1OC)C(=O)N(c1ccc(O)cc1)C2,"inconclusive [inhibitor, single point]"
21,CC(=O)Nc1nc(-c2cccc3ccccc23)cs1,"inconclusive [inhibitor, single point]"
22,CC(C)N(O)C(=O)NC(C)(C)C,"inconclusive [inhibitor, single point]"

row,Structure (SMILES),Potency
1,COc1cccc2cc(C(=O)NCc3ccco3)c(=Nc3ccc(C(=O)O)cc3)oc12,"inconclusive [inhibitor, single point]"
2,CCOc1cccc2sc(N(CCCN(C)C)C(=O)c3ccc(S(=O)(=O)N(C)c4ccccc4)cc3)nc12,inactive
3,CC(NC(=O)c1ccc(C(=O)c2ccccc2)cc1)c1ccc(S(N)(=O)=O)cc1 (centres undefined),"inconclusive [inhibitor, single point]"
4,CC1CN(C(=O)COc2ncnc3ccccc23)CC(C)O1 (centres undefined),inactive
5,O=C(O)Cn1cc(C(=S)N2CCCCC2)c2ccccc21,inactive
6,O=c1[nH]c(=S)[nH]cc1Oc1ccccc1,"inconclusive [inhibitor, single point]"
7,CCOC(=O)c1cc(C#N)c(SCC(=O)O)[nH]c1=O,"inconclusive [inhibitor, partial curve]"
8,CC(C)[C@H](NC(=O)C1CC(=O)N(c2ccc(F)cc2)C1)C(=O)N1CCCCC1 (some centres undefined),"inconclusive [inhibitor, single point]"
9,Cc1ccc(-n2nc3c(N4CCCC(C(=O)NCc5ccc(Cl)cc5)C4)nnc(C)c3c2C)cc1 (centres undefined),"inconclusive [inhibitor, single point]"
10,O=C(CCS(=O)(=O)c1ccc(Br)cc1)NCc1ccco1,"inconclusive [inhibitor, single point]"
11,N#Cc1ccc(C(=O)CSc2n[nH]c(=O)n2Cc2ccco2)cc1,"inconclusive [inhibitor, single point]"
12,CC(=O)Nc1cc(=O)c2cccnc2[nH]1,active: 15.8 µM
13,Cc1ccc(S(=O)(=O)Nc2nc(C)c(C(=O)NNS(=O)(=O)c3ccccc3)s2)cc1,"inconclusive [inhibitor, single point]"
14,CCOC(=O)c1ccc(NC(=O)CSc2nc(C)cc(=O)[nH]2)cc1,"inconclusive [inhibitor, partial curve]"
15,CC(=O)Nc1ccc(C2C(=O)c3ccccc3C2=O)cc1,"inconclusive [inhibitor, single point]"
16,CCCCC1(C(=O)OCC)NC(c2ccc(O)cc2)C2C(=O)N(c3ccccc3)C(=O)C21 (centres undefined),"inconclusive [inhibitor, single point]"
17,COc1ccc(/C=N/NC(=O)c2ccc(COc3cccc4cccnc34)cc2)cc1O,"inconclusive [inhibitor, partial curve, poor fit]"
18,CCCCN(CC)Cc1ccc(CNC(=S)Nc2ccccc2F)o1,"inconclusive [inhibitor, single point]"
19,COC(=O)C(NC(C)=O)(Nc1ccc(C)cn1)C(F)(F)F (centres undefined),"inconclusive [inhibitor, single point]"
20,CC1CCN(C(=O)CSc2nnc3ccccn23)CC1,"inconclusive [inhibitor, single point]"
